Source: the supplement of paper PMC11741623
Some of the results follow. Interaction screen of human proteins with wild-type SARS-CoV-2 proteins by split-DHFR complementation in yeast, 1 µg/mL methotrexate. Value = fitness of the pair (three or more lineages) minus that of the viral protein without a human partner, on a scale set by negative (0) and fused positive (1) controls, mean of up to three cultures; higher = more likely to interact. Active = false discovery rate below 0.05 (one-sided t-test) in at least one culture. Nearly all pairs are not hits, and differences among them are mostly noise (correlation between cultures about 0.3); most hits were seen in one culture only. Human sequences are the Swiss-Prot entries looked up by gene name; the clone may be another isoform. NSP2 values were corrected by the authors for a growth advantage. Listed are human proteins with a hit and a random twelfth of the others.

B1: FADS3, Q9Y5Q0 (protein)
chain: MGGVGEPGPREGPAQPGAPLPTFCWEQIRAHDQPGDKWLVIERRVYDISRWAQRHPGGSRLIGHHGAEDATDAFRAFHQDLNFVRKFLQPLLIGELAPEEPSQDGPLNAQLVEDFRALHQAAEDMKLFDASPTFFAFLLGHILAMEVLAWLLIYLLGPGWVPSALAAFILAISQAQSWCLQHDLGHASIFKKSWWNHVAQKFVMGQLKGFSAHWWNFRHFQHHAKPNIFHKDPDVTVAPVFLLGESSVEYGKKKRRYLPYNQQHLYFFLIGPPLLTLVNFEVENLAYMLVCMQWADLLWAASFYARFFLSYLPFYGVPGVLLFFVAVRVLESHWFVWITQMNHIPKEIGHEKHRDWVSSQLAATCNVEPSLFTNWFSGHLNFQIEHHLFPRMPRHNYSRVAPLVKSLCAKHGLSYEVKPFLTALVDIVRSLKKSGDIWLDAYLHQ
B2: SUSD4, Q5VX71 (protein)
chain: MYHGMNPSNGDGFLEQQQQQQQPQSPQRLLAVILWFQLALCFGPAQLTGGFDDLQVCADPGIPENGFRTPSGGVFFEGSVARFHCQDGFKLKGATKRLCLKHFNGTLGWIPSDNSICVQEDCRIPQIEDAEIHNKTYRHGEKLIITCHEGFKIRYPDLHNMVSLCRDDGTWNNLPICQGCLRPLASSNGYVNISELQTSFPVGTVISYRCFPGFKLDGSAYLECLQNLIWSSSPPRCLALEVCPLPPMVSHGDFVCHPRPCERYNHGTVVEFYCDPGYSLTSDYKYITCQYGEWFPSYQVYCIKSEQTWPSTHETLLTTWKIVAFTATSVLLVLLLVILARMFQTKFKAHFPPRGPPRSSSSDPDFVVVDGVPVMLPSYDEAVSGGLSALGPGYMASVGQGCPLPVDDQSPPAYPGSGDTDTGPGESETCDSVSGSSELLQSLYSPPRCQESTHPASDNPDIIASTAEEVASTSPGIDIADEIPLMEEDP
B3: KIAA1143, Q96AT1 (protein)
chain: MSKRNQVSYVRPAEPAFLARFKERVGYREGPTVETKRIQPQPPDEDGDHSDKEDEQPQVVVLKKGDLSVEEVMKIKAEIKAAKADEEPTPADGRIIYRKPVKHPSDEKYSGLTASSKKKKPNEDEVNQDSVKKNSQKQIKNSSLLSFDNEDENE
B4: OTUD3, Q5T2D3 (protein)
chain: MSRKQAAKSRPGSGSRKAEAERKRDERAARRALAKERRNRPESGGGGGCEEEFVSFANQLQALGLKLREVPGDGNCLFRALGDQLEGHSRNHLKHRQETVDYMIKQREDFEPFVEDDIPFEKHVASLAKPGTFAGNDAIVAFARNHQLNVVIHQLNAPLWQIRGTEKSSVRELHIAYRYGEHYDSVRRINDNSEAPAHLQTDFQMLHQDESNKREKIKTKGMDSEDDLRDEVEDAVQKVCNATGCSDFNLIVQNLEAENYNIESAIIAVLRMNQGKRNNAEENLEPSGRVLKQCGPLWEEGGSGARIFGNQGLNEGRTENNKAQASPSEENKANKNQLAKVTNKQRREQQWMEKKKRQEERHRHKALESRGSHRDNNRSEAEANTQVTLVKTFAALNI

Each binder was assayed against SARS-CoV-2 E (assay: yeast fitness gain over the viral ORF with no human partner (scaled fitness); higher = more likely to interact).
Description: (§1)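 Split mouse DHFR complementation in pooled diploid yeast: human ORFeome clones carry one fragment and viral ORFs the other; barcoded lineages compete in 1 µg/mL methotrexate and fitness is read by barcode sequencing in up to three cultures.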

Binder	yeast fitness gain
B1	inactive: -0.0294
B2	inactive: 0.0553
B3	inactive: -0.0202
B4	inactive: -0.0532

These binders were tested against SARS-CoV-2 M in the same assay as above.
Description: as §1

Binder	yeast fitness gain
B1	inactive: 0.0479
B2	inactive: -0.0859
B3	inactive: 0.0316
B4	inactive: 0.0734

What follows are binders tested against SARS-CoV-2 N in the same assay as above.
Description: as §1

Binder	yeast fitness gain
B1	inactive: 0.0598
B3	inactive: -0.0672
B4	inactive: -0.0529

Each binder was assayed against SARS-CoV-2 NSP1 in the same assay as above.
Description: as §1

Binder	yeast fitness gain
B1	inactive: -0.0062
B2	inactive: 0.0144
B4	inactive: 0.0159

The binders below were run against SARS-CoV-2 NSP10 in the same assay as above.
Description: as §1

Binder	yeast fitness gain
B1	inactive: -0.00303
B2	inactive: 0.00821
B4	inactive: -0.01

What follows are binders tested against SARS-CoV-2 NSP12 in the same assay as above.
Description: as §1

Binder	yeast fitness gain
B1	inactive: 0.0213
B2	inactive: 0.0243
B4	inactive: -0.00517

These binders were tested against SARS-CoV-2 NSP13 in the same assay as above.
Description: as §1

Binder	yeast fitness gain
B1	inactive: 0.0262
B2	inactive: -0.0156
B4	inactive: -0.00552

Each binder was assayed against SARS-CoV-2 NSP14 in the same assay as above.
Description: as §1

Binder	yeast fitness gain
B1	inactive: 0.0497
B2	inactive: 0.0883
B3	inactive: -0.26
B4	inactive: 0.0954

These binders were tested against SARS-CoV-2 NSP15 in the same assay as above.
Description: as §1

Binder	yeast fitness gain
B1	inactive: 0.0465
B2	inactive: -0.0536
B3	inactive: -0.011
B4	inactive: 0.0106

Each binder was assayed against SARS-CoV-2 NSP16 in the same assay as above.
Description: as §1

Binder	yeast fitness gain
B1	inactive: -0.0377
B3	inactive: -0.041
B4	inactive: 0.00766

Each binder was assayed against SARS-CoV-2 NSP2 in the same assay as above.
Description: as §1

Binder	yeast fitness gain
B1	inactive: -0.129
B2	inactive: -0.128
B4	inactive: -0.0592

These binders were tested against SARS-CoV-2 NSP4 in the same assay as above.
Description: as §1

Binder	yeast fitness gain
B1	inactive: 0.175
B2	inactive: 0.0397
B3	inactive: 0.0701
B4	inactive: -0.397

What follows are binders tested against SARS-CoV-2 NSP5 in the same assay as above.
Description: as §1

Binder	yeast fitness gain
B1	inactive: 0.00351
B2	inactive: -0.01
B3	inactive: -0.00507
B4	inactive: -0.0198

Each binder was assayed against SARS-CoV-2 NSP6 in the same assay as above.
Description: as §1

Binder	yeast fitness gain
B1	inactive: -0.00149
B2	inactive: 0.0286
B3	inactive: 0.0278
B4	inactive: 0.0103

These binders were tested against SARS-CoV-2 NSP7 in the same assay as above.
Description: as §1

Binder	yeast fitness gain
B1	inactive: 0.0427
B2	inactive: 0.0345
B3	inactive: -0.273
B4	inactive: 0.00892

These binders were tested against SARS-CoV-2 NSP8 in the same assay as above.
Description: as §1

Binder	yeast fitness gain
B1	inactive: 0.0528
B2	inactive: -0.00283
B3	inactive: 0.0164
B4	inactive: 0.00115

What follows are binders tested against SARS-CoV-2 NSP9 in the same assay as above.
Description: as §1

Binder	yeast fitness gain
B1	inactive: -0.00631
B2	inactive: -0.165
B4	inactive: 0.15

These binders were tested against SARS-CoV-2 ORF10 in the same assay as above.
Description: as §1

Binder	yeast fitness gain
B1	inactive: 0.0128
B2	inactive: 0.0368
B4	inactive: 0.00511

What follows are binders tested against SARS-CoV-2 ORF3A in the same assay as above.
Description: as §1

Binder	yeast fitness gain
B1	inactive: 0.0168
B2	inactive: -0.0375
B3	inactive: -0.0891
B4	inactive: -0.0871

Each binder was assayed against SARS-CoV-2 ORF3B in the same assay as above.
Description: as §1

Binder	yeast fitness gain
B1	inactive: 0.0221
B2	inactive: 0.02
B3	inactive: -0.0628
B4	inactive: -0.0158

Each binder was assayed against SARS-CoV-2 ORF6 in the same assay as above.
Description: as §1

Binder	yeast fitness gain
B1	inactive: 0.0137
B2	inactive: 0.00138
B4	inactive: 0.0291

Each binder was assayed against SARS-CoV-2 ORF7A in the same assay as above.
Description: as §1

Binder	yeast fitness gain
B1	inactive: -0.0327
B2	inactive: 0.00878
B3	inactive: -0.114
B4	inactive: 0.0141

What follows are binders tested against SARS-CoV-2 ORF7B in the same assay as above.
Description: as §1

Binder	yeast fitness gain
B1	inactive: 0.0541
B2	inactive: 0.0392
B4	inactive: -0.0486

Each binder was assayed against SARS-CoV-2 ORF8 in the same assay as above.
Description: as §1

Binder	yeast fitness gain
B1	inactive: 0.0602
B2	inactive: -0.00774
B4	inactive: -0.0201

These binders were tested against SARS-CoV-2 ORF9B in the same assay as above.
Description: as §1

Binder	yeast fitness gain
B1	inactive: -0.00303
B2	inactive: 0.01
B4	inactive: 0.00714

The binders below were run against SARS-CoV-2 ORF9Bwu (the 73-codon ORF) in the same assay as above.
Description: as §1

Binder	yeast fitness gain
B1	inactive: 0.0176
B2	inactive: 0.0829
B3	inactive: 0.0643
B4	inactive: 0.00182

These binders were tested against SARS-CoV-2 S in the same assay as above.
Description: as §1

Binder	yeast fitness gain
B1	inactive: 0.0551
B2	inactive: 0.0219
B3	inactive: -0.0623
B4	inactive: 0.0023
